In PubChem BioAssay AID463173 (ICCB-Longwood Screening Facility, Harvard Medical School, 2010):
In all, about 52,000 compounds went through this assay and about 1,700 (3.3%) were called active. Rule as the data show it: active = survival mostly below about 52% (no sharp cut-off); inactive = mostly above about 56%. Some of the results follow.

Tested on: Wild type
Assay: S. aureus survival, RN4220 and DeltatarO strains – OD600, teichoic acid synthesis inhibitors, primary screen (AID 463173)
Conditions: S. aureus RN4220 wild type/DeltatarO growth, OD600, 18 h, active compounds read low, screened at 18.75 µg/mL (by protocol)

| SMILES | survival |
| --- | --- |
| COC(=O)c1ccc(NC(=O)CSc2n[nH]c(-c3ccccc3)n2)cc1 | inactive: 92% |
| Cc1ccc(S(=O)(=O)N2Cc3ccccc3CC2C(=O)N(C)C)cc1 (stereo not given) | inactive: 102% |
| Cc1ccc(C)c(N2C(=O)N(Cc3ccccc3C)c3ccccc3S2(=O)=O)c1 | inactive: 117% |
| Cc1ccccc1OCC(=O)Nc1ccc2oc(-c3ccc(F)cc3)nc2c1 | inactive: 134% |
| O=C(Nc1nc2c(Cl)cccc2s1)c1ccc(S(=O)(=O)N2CCc3ccccc32)cc1 | inactive: 69% |
| COc1ccc(C)cc1NC(=O)COc1cc(=O)n(C)c2ccccc12 | inactive: 75% |
| COc1ccc(NC(=O)c2ccco2)cc1NC(=O)COc1cccc(C)c1C | inactive: 79% |
| CCc1ccc(NC(=O)CN(C)S(=O)(=O)c2ccc3c(c2)c(=O)n(C)c(=O)n3C)cc1 | inactive: 132% |
| O=C(CSc1oc(-c2ccccc2)nc1S(=O)(=O)c1ccc(Br)cc1)c1ccccc1 | inactive: 76% |
| O=C(Oc1ccccc1)C1C2CCCCC21 (stereo not given) | inactive: 106% |
| CCOC(=O)/C(C#N)=C/c1ccc(-c2ccc(Cl)c(C(=O)OC)c2)o1 | inactive: 119% |
| CCOC(=O)c1cc2c(=O)n3ccccc3nc2n(Cc2ccco2)c1=NC(=O)c1ccc(Br)cc1 | inactive: 86% |
| Cc1ccc(NC(=O)c2nnn(Cc3ccccc3)c2N)cc1C | inactive: 72% |
| O=C(Nc1ccc(Br)cc1)c1ccc(F)c(S(=O)(=O)NC2CCCCCC2)c1 | inactive: 56% |
| Cc1ccccc1-c1nc(SCC(=O)NCc2ccc(F)cc2)c2c(=O)n(C)c(=O)n(C)c2n1 | inactive: 110% |
| COC(=O)c1cc2c(ccn2-c2ccc(F)cc2)n1Cc1ccccc1 | inactive: 88% |
| COc1ccccc1N1CCN(c2nc3ccccc3n3cnnc23)CC1 | inactive: 75% |
| COc1ccc(-c2nc(-c3cc4cc(Br)ccc4oc3=O)cs2)cc1 | inactive: 83% |
| Cc1ccc2nc(N(CCCN(C)C)C(=O)c3ccco3)sc2c1 | inactive: 72% |
| Cc1ccc(-n2nc(CO)c(C(=O)NCc3ccccn3)n2)cc1 | inactive: 89% |
| O=C(CCn1nc(-c2ccccc2)c2ccccc2c1=O)Nc1ccccc1 | inactive: 86% |
| Cc1cccc(C)c1NC(=O)Nc1csc2c1CCCC2 | inactive: 78% |
| CCn1c(CNc2nc(-c3ccccc3)cs2)nnc1SCC(=O)c1ccc(OC)cc1 | inactive: 121% |

| SMILES | survival |
| --- | --- |
| CCc1ccc(-n2nnc(-c3nsc(NC(=O)c4ccccc4Cl)n3)c2C)cc1 | active: 12% |
| CC(=O)Nc1ccc(NC(=O)c2cc(=O)c3ccccc3o2)cc1 | inactive: 85% |
| Cc1cc(-c2ccc(C)c(S(=O)(=O)Nc3cccc(C)n3)c2)on1 | inactive: 70% |
| COc1ccc(OCc2ccc(-c3nc(C#N)c(N4CCN(c5ccccc5)CC4)o3)o2)cc1 | inactive: 87% |
| Cc1ccc2c(c1)N(C(=O)N1CCC(C(=O)NCc3cccc(Br)c3)CC1)CCO2 | inactive: 78% |
| O=C(O)C(CO)NS(=O)(=O)c1ccc(F)cc1 (stereo not given) | inactive: 112% |
| COc1ccc(Nc2nc3ccccc3nc2NS(=O)(=O)c2ccc(C)cc2)c(OC)c1 | inactive: 63% |
| CCOC(=O)c1cc(-c2ccccc2)n(CCC(=O)NCc2ccccc2Cl)c1C | inactive: 82% |
| COC(=O)c1sc2cccc(F)c2c1S(=O)(=O)N1CCN(c2cccc(OC)c2)CC1 | inactive: 80% |
| COc1cccc2cc(S(=O)(=O)c3ccc(F)c(C)c3)c(=O)oc12 | inactive: 73% |
| CCN(CC)c1cc(C)c2cc(NC(=O)c3cccc(OC)c3OC)ccc2n1 | inactive: 110% |
| O=C(COc1ccccc1F)OCc1cc(=O)n2nc(C3CCCCC3)sc2n1 | inactive: 69% |
| O=C1Nc2ccccc2Oc2cc(Oc3cccc(Cl)c3)ccc21 | inactive: 43% |
| Fc1ccc(N2CCN(c3nc4ccccc4c4nc(-c5cccnc5)nn34)CC2)cc1 | inactive: 87% |
| Cc1nnc(N2CCCC(C(=O)NCc3ccccc3)C2)c2nn(-c3ccccc3)c(C)c12 (stereo not given) | inactive: 72% |
| CCCCN(C)CCNC(=O)C1CCCN(S(=O)(=O)c2cccc3nsnc23)C1 (stereo not given) | inactive: 87% |
| Cc1c(Cl)cccc1-c1ccc(CNCCCSc2nnnn2C)o1 | inactive: 67% |
| CCc1ccc(S(=O)(=O)c2cn(C)c3cc(N4CCOCC4)c(F)cc3c2=O)cc1 | inactive: 72% |
| Cc1nc2nc(SCC(=O)N(C)Cc3ccccc3)nn2c(C)c1Cc1ccccc1Cl | inactive: 71% |
| Cc1cc(C)c(S(=O)(=O)N2CCC(n3c(C(F)(F)F)nc4cccnc43)CC2)c(C)c1 | inactive: 71% |
| Cc1cn2c(=O)cc(COc3cccc(NC(=O)c4ccc(C(C)(C)C)cc4)c3)nc2s1 | inactive: 76% |
| O=C(Cn1nnc(-c2ccccc2)n1)N1CCCCC1 | inactive: 109% |
| CCOC(=O)C1CCN(CC(=O)Nc2cc(C)c3c(=O)oc4ccccc4c3n2)CC1 | inactive: 119% |

| SMILES | survival |
| --- | --- |
| C=CCc1ccccc1OCCSc1nc(-c2cccs2)nc2cc(=O)[nH]n12 | inactive: 72% |
| CCOc1ccc(NC(=O)c2c(C)nn(-c3ccc(F)cc3)c2-n2cccc2)cc1 | inactive: 77% |
| O=C(CCn1cnc2onc(-c3ccc(F)cc3)c2c1=O)Nc1ccc(F)c(Cl)c1 | inactive: 87% |
| CCc1c(C)sc2c1CCN(Cc1ccccc1)C2c1ccccc1 (stereo not given) | inactive: 80% |
| O=C(Nc1ccc(OCc2cc(=O)n3c4c(sc3n2)CCCC4)cc1)c1cccc(F)c1 | inactive: 78% |
| C=CCN1C(=O)C(=O)/C(=C(\O)c2ccccc2)C1c1ccccc1 (stereo not given) | inactive: 102% |
| Cc1nn(-c2ccccc2)c2nc(C3CC3)cc(C(=O)Nc3ccc(F)cc3)c12 | inactive: 79% |
| Cc1ccc(NC(=O)CN(C)S(=O)(=O)c2ccc3c(c2)n(C)c(=O)c(=O)n3C)cc1F | inactive: 92% |
| Cc1ccc2c(c1)-c1onc(C(=O)N(C)c3cccc(C(F)(F)F)c3)c1CO2 | inactive: 121% |
| c1coc(CNc2ncnc3sc4c(c23)CCCC4)c1 | inactive: 108% |
| CC1(C)Cc2c(c(N3CCOCC3)nc3sc(C(=O)Nc4ccc(Cl)cc4)c(N)c23)CO1 | inactive: 65% |
| CCOc1ccc(S(=O)(=O)Nc2cccc(-c3ccc(N4CCCC4)nn3)c2)cc1 | inactive: 129% |
| Cc1cccc(NC(=O)CSc2nc(-c3cccc(C)c3)nc3c2Cc2c(CO)cnc(C)c2O3)c1 | inactive: 115% |
| CCc1nc2ccc(C(=O)NCc3ccc(OC)c(OC)c3)cc2nc1CC | inactive: 81% |
| Cc1ccc2c(CC(=O)Nc3cccc(C(F)(F)F)c3)coc2c1 | active: 8% |
| CCOC(=O)COc1ccc(/C=C(\C#N)c2nc3ccc(C)cc3[nH]2)cc1OC | inactive: 67% |
| CCOC(=O)c1sc(N2C(=O)c3oc4ccccc4c(=O)c3C2c2ccc(C(C)(C)C)cc2)nc1C (stereo not given) | inactive: 62% |
| CCCCOc1ccc(C(=O)Nc2cc(-c3ccc(C)cc3)no2)cc1 | inactive: 88% |
| Cc1ccccc1CNC(=O)Cn1c(C)c2cnn(-c3ccccc3)c(=O)c2c1C | inactive: 81% |
| Cc1oc2ncn(CC(C)C)c(=O)c2c1C(=O)NCCc1ccc(Cl)cc1 | inactive: 87% |
| Cc1cccn2c3c(c(=O)nc12)C(c1cccc(F)c1)CC(=O)N3 (stereo not given) | inactive: 81% |
| CCC1CCCCN1Cc1c(O)ccc2c(=O)c(Oc3ccccc3Cl)c(C(F)(F)F)oc12 (stereo not given) | inactive: 71% |
| Cc1ccc(CNC(=O)c2ccc3c(c2)CCN3S(=O)(=O)c2ccccc2)cc1 | inactive: 84% |

| SMILES | survival |
| --- | --- |
| O=C(Cn1cnc2nc3c(cc2c1=O)CCCC3)N1CCN(c2cccc(C(F)(F)F)c2)CC1 | active: 14% |
| Cc1ccc(C)c(NC(=O)CSc2c(C)cnc3c2c(=O)n(C)c(=O)n3C)c1 | inactive: 55% |
| Cc1ccc(N(C)C(=O)CC(C)S(=O)(=O)c2ccc3c(c2)NC(=O)CO3)cc1 (stereo not given) | inactive: 129% |
| CCc1ccc(NC(=O)Cn2ccn(-c3ccc(OC)cc3)c(=O)c2=O)cc1 | inactive: 96% |
| CCCOC(=O)C1=C(C)OC23OC(N)=C(C#N)C12C(=O)c1ccccc13 (stereo not given) | inactive: 122% |
| COc1ccc(CCNC(=O)c2csc3c2CCCCC3)c(OC)c1 | inactive: 76% |
| COc1ccc(Cn2c(C(=O)O)c(CNC3CCCC3)c3ccc(C)cc32)cc1 | inactive: 55% |
| CC(=O)c1ccc(S(=O)(=O)Nc2ccc(-c3ccc(N4CCCCC4)nn3)cc2)cc1 | inactive: 72% |
| CCC(=O)N1c2ccccc2CC1C(=O)N1CCN(c2cccc(OC)c2)CC1 (stereo not given) | inactive: 65% |
| Cc1cccc(NC(=O)CC2Nc3cccc4cccc(c34)NC2=O)c1 (stereo not given) | inactive: 86% |
| COC(=O)c1cc2oc(C)cc2n1Cc1cc(C)ccc1C | active: -2% |
| CCc1nc(N=C(N)N)nc2ccc(C)cc12 | inactive: 97% |
| CCOc1ccc(NC(=O)CSc2nc(-c3cccc(Cl)c3)nc3c2Cc2c(CO)cnc(C)c2O3)cc1 | inactive: 84% |
| Cc1ccc(C)c(NC(=O)Cn2ncc3c([nH]c4ccccc43)c2=O)c1 | inactive: 45% |
| O=c1c2c(nc3cc(-c4cccc(Cl)c4)[nH]n13)CCCC2 | inactive: 93% |
| Cc1cc2c(cc1S(=O)(=O)CCC(=O)N(C)C1CCCCC1)OCC(=O)N2 | inactive: 85% |
| CCCCN1C(=O)CN(C2CCCCCC2)C(=O)C1c1ccc(OCC)c(OC)c1 (stereo not given) | inactive: 78% |
| COCCN(Cc1ccco1)C(=O)Cn1ncc2c([nH]c3ccccc32)c1=O | inactive: 79% |
| COc1cccc(NC(=O)CCc2nc(-c3ccc(C(C)(C)C)cc3)no2)c1 | inactive: 91% |
| Cc1ccc(-c2nnn3c2nc(NCCc2ccccc2)c2ccccc23)cc1 | inactive: 87% |
| CN(c1ncnc2c1c(-c1ccccc1)cn2-c1cccc(Cl)c1)C1CCCCC1 | inactive: 89% |
